# Hit rate of the full screen: of about 360,000 compounds, about 7,500 (2.1%) were called active. This list was built around the results that the source calls inconclusive (neither active nor inactive); the mix of calls is not that of the screen. Calls come from the whole dose curve; as a rule, active = well fitted cell-killing curve with a large enough effect; inconclusive = small, poorly fitted or top-dose-only effect, or effect the other way, or another doubt; inactive = no such curve, though single readings can be large or run the other way. No potency is given beside an inconclusive call; the fits are too rough.
# Experiment: qHTS for induction of synthetic lethality in tumor cells producing 2HG: qHTS for the HT-1080-IDH1KD cell line
# Details: HT-1080 IDH1 knockdown viability, ATP luminescence, 48 h; series mostly up to 46.1 µM
# Outline: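 Knockdown cells (IDH1KD HT-1080) received compounds 2 h after plating at 750 cells/well and were kept 48 h at 37 °C in 5% FBS RPMI. A CellTiter-Glo luminescence read gave % activity for curve fitting.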
# Potency is the fitted concentration of half-maximal effect; tags give direction and shape of the fitted curve.
row,Compound,Potency
1,CCOC(=O)c1c(C)[nH]c(C)c1C(=O)COC(=O)c1ccc(Cl)c(S(=O)(=O)NCc2ccccc2)c1,active: 23.1 µM
2,CC(=O)NC(Cc1ccccc1C)C(=O)NC1CCN(C(=O)c2ccc(C)cc2)CC1 (stereo not drawn),inactive
3,CC(C)(C)c1ccccc1OCCOCCNCc1ccccc1,"inconclusive [cytotoxic, partial curve, poor fit]"
4,CN1[C@@H](CC(=O)c2ccccc2)CCC[C@H]1C[C@H](O)c1ccccc1,inactive
5,CC(C)(C)c1ccc(OCc2ccc(C(=O)N/N=C/c3ccc(O)c(O)c3)cc2)cc1,"inconclusive [cytotoxic, single point]"
6,CCN1CCn2c3c(c4cc(C)ccc42)CCCC31 (stereo not drawn),inactive
7,CN(C)c1ccc(CNC(=O)C2(C)Cc3c(-c4ccccc4)ccnc3O2)cc1 (stereo not drawn),"inconclusive [cytotoxic, single point]"
8,COc1ccc(CC(N)c2csc(NC(=O)Nc3ccc(OC)cc3)n2)cc1 (stereo not drawn),"inconclusive [cytotoxic, single point]"
9,CCOC(=O)CC1(CC)Oc2ccccc2N1S(=O)(=O)c1ccc(C)cc1 (stereo not drawn),"inconclusive [cytotoxic, single point]"
10,COc1ccc(CNC(=O)C(c2ccc(C)o2)N(Cc2cccs2)C(=O)Cc2cccs2)cc1 (stereo not drawn),inactive
11,O=C1CCCc2c1cc(-c1ccccc1)n2-c1ccc(O)cc1,inactive
12,O=C(CCl)N(CCCNC(=O)C(F)(F)F)c1ccc([N+](=O)[O-])cc1,active: 7.31 µM
13,Cc1ccc(C(=O)N/N=C/c2ccc([N+](=O)[O-])s2)cc1,"inconclusive [cytotoxic, single point]"
14,Cc1ccc(S(=O)(=O)N(CC(=O)N/N=C/c2cccc3c2OCCO3)c2ccccc2F)cc1,"inconclusive [cytotoxic, single point]"
15,COc1ccc(C(CNC(=O)c2ccc(C)c(S(=O)(=O)Nc3ccccc3OC)c2)N2CCCC2)cc1 (stereo not drawn),"inconclusive [cytotoxic, partial curve]"
16,CCOc1ccc(CNC(=O)c2ccc(Sc3ccc(Cl)cc3)c(NC(C)=O)c2)cc1,"inconclusive [cytotoxic, partial curve]"
17,CCN1CCN(c2cc(C)c3cc(NC(=S)N4CC(C)CC(C)C4)ccc3n2)CC1 (stereo not drawn),active: 16.4 µM
18,O=C(Nc1ccccc1)c1cccc(=O)o1,inactive
19,O=C(Nc1ccc(N2CCOCC2)cc1)c1cc2c(s1)CCCC2,"inconclusive [cytotoxic, partial curve]"
20,CCn1ccnc1CN1CCc2c([nH]c3ccccc23)C1C(C)(C)C (stereo not drawn),"inconclusive [cytotoxic, single point]"
21,Cc1ccc(-c2nc3ccc(C)cn3c2Cc2ccccc2C(F)(F)F)cc1,"inconclusive [cytotoxic, single point]"
22,COc1ccc(C2=NN3C(C2)c2ccccc2OC32C(=O)N(C)c3ccccc32)cc1 (stereo not drawn),"inconclusive [cytotoxic, single point]"
23,CC(C)(C)c1ccc(C(=O)OCC(=O)NCc2ccco2)cc1,"inconclusive [cytotoxic, single point]"

row,Compound,Potency
1,CCC(C)(C)C1CCc2[nH]nc(C(=O)NN)c2C1 (stereo not drawn),"inconclusive [cytotoxic, full curve]"
2,O=C(COC(=O)c1ccc(O)cc1O)NC12CC3CC(CC(C3)C1)C2,inactive
3,COc1nc(Nc2ccc([N+](=O)[O-])cc2)nc(NC2CCCCC2)n1,"inconclusive [cytotoxic, single point]"
4,CN(CC(=O)O/N=C(\N)c1ccc([N+](=O)[O-])cc1)S(=O)(=O)c1ccccc1,"inconclusive [cytotoxic, single point]"
5,CC1(C)NC(=O)N(CC(O)CN(c2cccc([N+](=O)[O-])c2)S(=O)(=O)c2ccccc2)C1=O (stereo not drawn),inactive
6,CCCCCOc1ccc(NC(=O)C(=O)NCC2CCCN2CC)cc1 (stereo not drawn),inactive
7,C=CCC[C@H](Cc1ccc(F)cc1)C(=O)O[C@H](CNC(=O)[C@@H](CC=C)CC(=O)N(CCO)Cc1ccccc1)c1ccccc1,"inconclusive [cytotoxic, single point]"
8,O=S(c1ccccc1O)S(=O)c1ccccc1O (stereo not drawn),"inconclusive [cytotoxic, single point]"
9,OC1CCCN(Cc2cn(Cc3ccccc3)nc2-c2cc3ccccc3o2)C1 (stereo not drawn),"inconclusive [cytotoxic, single point]"
10,Cc1cccc(S(=O)(=O)NC(=O)C2(C)CCN2C(=O)CCc2ccccc2)c1 (stereo not drawn),"inconclusive [rising, partial curve]"
11,COc1ccc(C(C)NC(=O)C2CCN(CCOc3ccc(Cl)cc3Cl)CC2)cc1OC (stereo not drawn),"inconclusive [cytotoxic, full curve, poor fit]"
12,CCn1cc(C(=O)NCCCN2CCCCCC2)c(=O)c2cc(S(=O)(=O)N3CCc4ccccc4C3)ccc21,"inconclusive [cytotoxic, full curve, poor fit]"
13,Cc1cccc(NC(=S)NC(=O)/C=C/c2ccco2)c1,"inconclusive [cytotoxic, full curve]"
14,CCc1cccc2c(C(=O)CN3C(=O)NC4(CCCCCC4)C3=O)c[nH]c12,active: 5.8 µM
15,CCC(C)Nc1nc2c(c(=O)n(C)c(=O)n2C)n1Cc1cccc(C)c1 (stereo not drawn),inactive
16,COc1ccc(S(=O)(=O)N(C)c2ccc(C(=O)N3CCOCC3)cc2)cc1,inactive
17,COc1cc(-c2noc(C)c2/C=C/c2cccc([N+](=O)[O-])c2)cc(OC)c1OC,active: 3.66 µM
18,CN(C)Cc1ccccc1Sc1ccc2c(c1)CCCC2,"inconclusive [cytotoxic, single point]"
19,OC[C@@H]1CN(Cc2ccccc2)C[C@H](n2cnc3c(NC4CC4)ncnc32)O1,inactive
20,CCCCC/C(=N\NC(=O)CCC(=O)NCc1ccccc1)c1ccccc1,"inconclusive [cytotoxic, single point]"
21,COc1cccc(/C=N/Nc2nc(Nc3ccccc3)nc(-n3nc(C)cc3C)n2)c1O,active: 7.31 µM
22,O=C1C(=Cc2cn(-c3ccccc3)nc2-c2ccc(OCc3ccccc3)cc2)SC(=S)N1CCS(=O)(=O)O,inactive
23,O=C(Nc1ccc2c(c1)OCCO2)C(c1ccnc2ccccc12)N1CCN(C/C=C/c2ccccc2)CC1 (stereo not drawn),active: 14.6 µM

row,Compound,Potency
1,Cc1cc(N2CCN(C)CC2)nc2ccc(NC(=S)N3CCN(c4ccc(Cl)cc4)CC3)cc12,"inconclusive [cytotoxic, single point]"
2,C=CCNC(=O)CSc1nnc(-c2cccc(S(=O)(=O)N3CCOCC3)c2)o1,inactive
3,CCOc1ccc(-n2c(-c3ccc(OC)cc3)c[n+]3c2CCCCC3)cc1,active: 3.66 µM
4,O=C(c1ccc(C(F)(F)F)cc1)c1c[nH]c(C(=O)NCCCn2ccnc2)c1,"inconclusive [cytotoxic, partial curve]"
5,Cc1ccc2nc3c(cc(C(=O)NC4CCCCC4)c(=N)n3C3CCCCC3)c(=O)n2c1,"inconclusive [cytotoxic, single point]"
6,CC(=O)NNc1nc(-c2ccccc2)c2cc(Cl)ccc2n1,inactive
7,Cc1ccc2nc(C)/c(=N\O)c(C)nc2c1,"inconclusive [cytotoxic, single point]"
8,CC(=O)N1c2ccc(S(=O)(=O)N3CCC(C(=O)NC(C)c4ccccc4)CC3)cc2CC1C (stereo not drawn),inactive
9,Cc1cccc(N(C)c2ncnc3onc(-c4ccc(F)cc4)c23)c1C,"inconclusive [cytotoxic, single point]"
10,COc1cccc(C2=NOC(C(=O)NCc3ccc(F)cc3)C2)c1 (stereo not drawn),"inconclusive [cytotoxic, full curve, poor fit]"
11,O=C1C(c2ccccc2)=[N+]([O-])c2ccccc21,"inconclusive [cytotoxic, single point]"
12,O=C(OCc1cn([C@H]2CN(C(=O)c3cccs3)[C@@H](c3ccc(Cl)cc3)C[C@@H]2O)nn1)c1ccccc1,"inconclusive [cytotoxic, single point]"
13,Cc1cc(C)c(NC(=S)NCCCSC2CCCCC2)c(C)c1,"inconclusive [cytotoxic, single point]"
14,CC(C)(C)N(Cc1ccccc1)C(=O)COC(=O)C1CC1,inactive
15,C[C@H](CO)N1C[C@H](C)[C@@H](CN(C)C(=O)Nc2ccc(C(F)(F)F)cc2)Oc2c(NC(=O)Nc3ccc(C(F)(F)F)cc3)cccc2C1=O,"inconclusive [cytotoxic, single point]"
16,CCOC(=O)c1sc(NC(=O)c2ccc3nc[nH]c3c2)nc1C,"inconclusive [cytotoxic, full curve]"
17,Cc1cccc(-c2nnc(SCC(=O)NC3CC3)n2C)c1,inactive
18,CCC(COC)Oc1cc(NCc2ccccc2)c2ncn(C(C)C)c2c1 (stereo not drawn),"inconclusive [cytotoxic, single point]"
19,O=C(Cc1cccc2ccccc12)Nc1ccccc1C(=O)O,"inconclusive [cytotoxic, single point]"
20,COC(=O)c1ccc(-n2c(C)cc(-c3csc(NC(=O)c4ccc(S(=O)(=O)N(C)C)cc4)n3)c2C)cc1,inactive
21,Cc1nc(SCC(=O)c2ccccc2)c(C#N)c(-c2ccco2)c1C(=O)NCc1ccco1,"inconclusive [cytotoxic, single point]"
22,COc1ccc(CNc2cc(C)nc3ncnn23)c(OC)c1,"inconclusive [cytotoxic, full curve, poor fit]"

# Source: PubChem BioAssay AID686971 (National Center for Advancing Translational Sciences (NCATS), 2013)
